# Data from PubChem BioAssay (Tox21).
# Values joined by “and” are separate entries in the source; they are usually repeats but may differ in a detail not shown here. Equal entries are not always repeated. Inconclusive results, whose numbers are uncertain, are shown with a selection of clear calls. Potencies of inconclusive entries are doubtful fits and often do not repeat. More than one record can exist for a structure, and the calls need not agree. Active and inactive are the calls of the source. Unless noted, calls come from the whole dose curve; as a rule, active = well fitted curve in the direction sought with a large enough effect in the repeat runs; inconclusive = weak or mixed curves; inactive = no such curve, though single readings can be large; an effect the other way counts as inactive or inconclusive.
# Columns and labels:
# [1] = qHTS assay to identify aromatase inhibitors - cell viability counter screen (AID 743084); details: MCF-7 aro ERE viability, CellTiter-Fluor, 24 h; activity change, negative = cytotoxicity: at 70.3 µM (top of the series);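 note: cells stimulated with testosterone during compound exposure; nearly all actives have a fitted effect of over 55% in size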; for activity change, negative = cytotoxicity: % is set by controls: 0 for no effect and ±100 for the full control effect
# [2] = biological target: Aryl hydrocarbon receptor (Homo sapiens) (UniProt P35869); assay: qHTS assay to identify small molecule that activate the aryl hydrocarbon receptor (AhR) signaling pathway (AID 743085); note: nearly all actives have a fitted effect of over 15% in size
# In short: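 A multiplexed format paired cell viability (CellTiter-Fluor fluorescence) with AhR-dependent luciferase output (ONE-Glo luminescence) in the same wells of HepG2 DRE-luc cells after 24 h compound exposure at 37C.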
# [3] = biological target: Peroxisome proliferator-activated receptor gamma (Homo sapiens) (UniProt P37231); assay: qHTS assay to identify small molecule antagonists of the peroxisome proliferator-activated receptor gamma (PPARg) signaling pathway (AID 743191; calls by dose curve; note: nearly all actives have a fitted effect of over 30% in size; for ratio activity, negative = inhibition: % is set by controls: 0 for no effect and ±100 for the full control effect); details: HEK293H PPARg-UAS-bla, beta-lactamase ratio, antagonist, 17 h
# In short: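 GeneBLAzer PPARg UAS-bla HEK293H cells, 5 h post-plating, exposed to compounds 17 h at 37C. LiveBLAzer B/G FRET substrate added for 1 h at room temperature; beta-lactamase reporter read by fluorescence intensity.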
# [4] = qHTS assay to identify small molecule antagonists of the peroxisome proliferator-activated receptor gamma (PPARg) signaling pathway - cell viability counter screen (AID 743194); details: PPARg-bla HEK293H viability, CellTiter-Glo luminescence, 17 h, co-treated with 50 nM rosiglitazone; activity change, negative = cytotoxicity: at 62.6 µM (top of the series) unless noted; note: nearly all actives have a fitted effect of over 55% in size
# In short: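 Cytotoxicity counter screen in PPARg-bla HEK293H cells, same wells as reporter assay. Compounds plus 50 nM rosiglitazone (final) for 17 h at 37 C, then viability read by CellTiter-Glo luminescence.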
# [5] = biological target: Aromatase (Homo sapiens) (UniProt P11511); assay: qHTS assay to identify aromatase inhibitors (AID 743083); details: MCF-7 aro ERE, testosterone-driven ERE luciferase, 24 h; activity, negative = inhibition: at 70.3 µM (top of the series); note: nearly all actives have a fitted effect of over 55% in size; for activity, negative = inhibition: % is set by controls: 0 for no effect and ±100 for the full control effect
# [6] = biological target: Peroxisome proliferator-activated receptor gamma (Homo sapiens) (UniProt P37231); assay: qHTS assay to identify small molecule agonists of the peroxisome proliferator-activated receptor gamma (PPARg) signaling pathway (AID 743094; active = well fitted activation curve with a large enough effect in the signal ratio in the repeat runs, not every such curve was filed as active; inconclusive = weak or mixed curves, or effect the other way; inactive = no such curve, though single readings can be large or run the other way; the % refers to the signal ratio; for activation: % is set by controls: 0 for no effect and ±100 for the full control effect); details: HEK293H PPARg-UAS-bla, beta-lactamase FRET ratio, 17 h; activation: at 57 µM (top of the series) unless noted
# In short: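 Following 5 h plating at 37C, PPARg-bla HEK293H cells receive compound or DMSO for 17 h; fluorescence intensity is recorded after LiveBLAzer B/G loading for 1 h at room temperature.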
# [7] = qHTS assay to identify small molecule that activate the aryl hydrocarbon receptor (AhR) signaling pathway - cell viability counter screen (AID 743086); note: nearly all actives have a fitted effect of over 45% in size
# In short: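 HepG2-AhR-luc (HG2L7.5c1) cells, 4000/well, treated 24 h at 37 C with compound; viability measured as CellTiter-Fluor fluorescence after 30 min in the same wells as the luciferase read.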
# [8] = ratio activity, negative = inhibition: at 62.6 µM (top of the series) unless noted
# Potency is the fitted concentration of half-maximal effect; tags give direction and shape of the fitted curve or compound fluorescence and quenching.
# UniProt P35869, sequence (P35869 whole entry, looked up): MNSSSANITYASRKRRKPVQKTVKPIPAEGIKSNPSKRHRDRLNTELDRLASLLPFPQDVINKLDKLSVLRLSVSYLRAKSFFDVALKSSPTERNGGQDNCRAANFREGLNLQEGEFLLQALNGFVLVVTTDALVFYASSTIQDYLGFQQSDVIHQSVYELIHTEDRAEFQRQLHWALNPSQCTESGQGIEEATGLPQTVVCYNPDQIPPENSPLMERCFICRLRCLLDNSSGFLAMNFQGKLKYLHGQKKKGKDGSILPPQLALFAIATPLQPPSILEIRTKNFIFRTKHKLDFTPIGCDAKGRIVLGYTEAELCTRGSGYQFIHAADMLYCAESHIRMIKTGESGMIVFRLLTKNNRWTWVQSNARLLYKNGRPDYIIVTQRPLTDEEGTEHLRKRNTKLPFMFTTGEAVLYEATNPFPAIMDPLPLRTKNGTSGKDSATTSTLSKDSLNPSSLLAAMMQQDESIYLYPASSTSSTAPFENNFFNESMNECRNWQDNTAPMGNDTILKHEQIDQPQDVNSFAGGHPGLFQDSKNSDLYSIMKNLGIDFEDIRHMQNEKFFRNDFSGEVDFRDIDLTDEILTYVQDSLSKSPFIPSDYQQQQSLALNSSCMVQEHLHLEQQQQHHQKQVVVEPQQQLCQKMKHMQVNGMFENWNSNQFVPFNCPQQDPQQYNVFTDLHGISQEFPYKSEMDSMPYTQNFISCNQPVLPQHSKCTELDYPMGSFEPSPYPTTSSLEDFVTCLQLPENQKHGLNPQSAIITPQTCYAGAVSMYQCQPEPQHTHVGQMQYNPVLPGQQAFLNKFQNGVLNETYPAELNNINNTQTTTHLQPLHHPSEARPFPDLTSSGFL
# UniProt P11511, sequence (P11511 whole entry, looked up): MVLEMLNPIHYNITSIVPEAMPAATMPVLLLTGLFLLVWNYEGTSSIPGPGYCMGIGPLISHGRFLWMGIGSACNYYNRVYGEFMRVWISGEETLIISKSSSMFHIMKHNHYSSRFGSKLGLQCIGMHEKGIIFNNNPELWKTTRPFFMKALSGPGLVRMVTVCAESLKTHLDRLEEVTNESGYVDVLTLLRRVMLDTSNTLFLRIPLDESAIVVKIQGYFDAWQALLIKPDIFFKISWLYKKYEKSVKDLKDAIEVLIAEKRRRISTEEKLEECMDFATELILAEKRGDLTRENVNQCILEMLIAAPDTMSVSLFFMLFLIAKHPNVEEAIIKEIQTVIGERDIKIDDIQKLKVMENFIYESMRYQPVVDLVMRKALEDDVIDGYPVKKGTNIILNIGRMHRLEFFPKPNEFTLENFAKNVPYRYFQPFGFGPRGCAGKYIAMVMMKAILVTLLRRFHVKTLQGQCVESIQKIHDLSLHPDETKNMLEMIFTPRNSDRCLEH
# UniProt P37231, sequence (P37231 whole entry, looked up): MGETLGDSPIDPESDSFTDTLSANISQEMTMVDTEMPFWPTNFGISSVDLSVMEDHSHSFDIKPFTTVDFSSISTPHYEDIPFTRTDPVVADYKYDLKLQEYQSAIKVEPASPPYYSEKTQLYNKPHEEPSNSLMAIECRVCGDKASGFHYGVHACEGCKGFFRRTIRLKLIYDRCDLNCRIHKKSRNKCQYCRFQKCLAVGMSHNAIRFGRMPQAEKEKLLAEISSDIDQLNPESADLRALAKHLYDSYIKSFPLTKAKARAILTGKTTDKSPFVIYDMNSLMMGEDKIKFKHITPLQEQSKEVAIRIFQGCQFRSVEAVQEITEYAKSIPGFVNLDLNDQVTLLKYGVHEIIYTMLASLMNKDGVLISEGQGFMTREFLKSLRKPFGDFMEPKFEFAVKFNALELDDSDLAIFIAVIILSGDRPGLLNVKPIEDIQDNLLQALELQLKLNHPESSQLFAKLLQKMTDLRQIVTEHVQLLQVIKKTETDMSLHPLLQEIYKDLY
smiles,measurement,setting,value
CC(C)O,Potency,[1],"inconclusive: 82.6 µM [cytotoxic, single point]"
COc1cc(C)cc(O)c1,Potency,[1],inactive
same,Potency,[2],"inconclusive: 54.5 µM [activator, partial curve, poor fit]"
same,"ratio activity, negative = inhibition",[3]; [8],inconclusive: 2.77%
same,Potency,[4],"inconclusive: 21.9 µM [cytotoxic, partial curve, poor fit]"
CC(C)C(=O)OCC(C)(C)C(O)C(C)C (stereo not drawn),Potency,[1],"inconclusive: 1.73 µM [cytotoxic, full curve, poor fit]"
O=C(O)c1cccnc1Nc1cccc(C(F)(F)F)c1,Potency,[5],inactive
same,activation,[6],inconclusive: -14.9%
same,Potency,[3]; [8],active: 11.9 µM
same,Potency,[4],"inconclusive: 26.6 µM [cytotoxic, partial curve, poor fit]"
CC1(C)S[C@@H]2[C@H](NC(=O)Cc3ccccc3)C(=O)N2[C@H]1C(=O)O (tested in a mixture with another compound),Potency,[1],inactive
CC1CCC2CC1C2(C)C (stereo not drawn),Potency,[1],inactive
C=CCCCCCC,Potency,[1],inactive
CN1C(C)(C)CCCC1(C)C,Potency,[1],inactive
CC(O)(P(=O)(O)O)P(=O)(O)O,Potency,[1],"inconclusive: 17.3 µM [rising, full curve, poor fit]"
same,Potency,[2],active: 15.4 µM
same,activation,[6],inconclusive: -12.9% [at 78.9 µM]
same,"ratio activity, negative = inhibition",[3]; at 62.6 µM (top of the series),inactive: -1.89% and inactive: 0.944%
same,"ratio activity, negative = inhibition",[3]; [8],inconclusive: -41.6% [inhibitor] [at 81.1 µM]
c1ccc2c(c1)ccc1c3ccccc3ccc21,Potency,[1],inactive
same,Potency,[2],"inconclusive: 3.51 µM [activator, partial curve]"
Cl/C(=C\n1cncn1)c1ccc(Cl)cc1Cl,Potency,[5],"inconclusive: 33.5 µM [inhibitor, single point]"
same,"ratio activity, negative = inhibition",[3]; [8],inconclusive: 6.11%
CC(C)CC(=O)O,Potency,[5],inactive
same,"ratio activity, negative = inhibition",[3]; [8],inconclusive: -31.6%
CC(C)c1ccccc1,Potency,[5],"inconclusive: 79.9 µM [inhibitor, partial curve, poor fit]"
same,Potency,[3]; [8],inactive
O=C(c1ccc(O)cc1)c1ccc(O)c(O)c1O,Potency,[1],"inconclusive: 61.4 µM [cytotoxic, partial curve, poor fit]"
same,Potency,[2],active: 61.4 µM
same,Potency,[7],"inconclusive: 48.8 µM [falling, partial curve]"
same,Potency,[3]; [8],"inconclusive: 49.2 µM [rising, partial curve]"
O=C(O)c1ccc(CO)o1,Potency,[1],inactive
C=CCOC(=O)CCC1CCCCC1,Potency,[1],"inconclusive: 68.6 µM [rising, partial curve, poor fit]"
O=C(O)CNC(=O)CNC(=O)CNC(=O)CSC(=O)c1ccccc1,Potency,[1],inactive
O=C(Cl)c1cc(Cl)cc(Cl)c1,Potency,[1],"inconclusive: 13.9 µM [rising, full curve, poor fit]"
same,Potency,[2],inactive
same,Potency,[7],"inconclusive: 69.8 µM [rising, partial curve, poor fit]"
same,"ratio activity, negative = inhibition",[3]; [8],inconclusive: 23.5% [at 81.1 µM]
O=C1CC2(CCCC2)CC(=O)N1CCNCC1COc2ccccc2O1 (stereo not drawn),Potency,[1],"inconclusive: 33.5 µM [cytotoxic, single point]"
CC(=O)OC(C)(C)C1CC=C(C)CC1 (stereo not drawn),Potency,[1],inactive
same,"ratio activity, negative = inhibition",[3]; [8],inconclusive: 17.1%
NC(=S)Nc1cccc2ccccc12,"activity change, negative = cytotoxicity",[1],inactive: 1.26% [at 8.47 µM]
same,"ratio activity, negative = inhibition",[3]; [8],inconclusive: -1.05% [at 5.95 µM]
CCCCOC(=O)COc1ccc(Cl)cc1Cl,Potency,[1],inactive
same,Potency,[3]; [8],inactive
O=C(C1CCCCC1)N1CC(=O)N2CCc3ccccc3C2C1 (stereo not drawn),Potency,[1],"inconclusive: 54.4 µM [cytotoxic, partial curve, poor fit]"
same,Potency,[6],"inconclusive: 21.9 µM [rising, partial curve, poor fit]"
same,"ratio activity, negative = inhibition",[3]; at 62.6 µM (top of the series),inactive: 6.8%
same,Potency,[3]; [8],"inconclusive: 38.9 µM [fluorescent, partial curve, poor fit]"
same,"ratio activity, negative = inhibition",[3]; [8],inconclusive: -0.0238%
Nc1nc(CC(=O)O)cs1,Potency,[2],"inconclusive: 30.7 µM [activator, partial curve]"
CC(C)CCCCOC(=O)c1ccccc1C(=O)OCCCCC(C)C,Potency,[1],"inconclusive: 54.6 µM [rising, partial curve, poor fit]"
same,Potency,[3]; [8],inactive
CCCCCCCCCCCCCCCC(=O)O,Potency,[1],"inconclusive: 0.864 µM [rising, full curve, poor fit]"
same,Potency,[6],inactive
same,"ratio activity, negative = inhibition",[3]; at 62.6 µM (top of the series),inactive: -11.3% and inactive: 5.15%
same,"ratio activity, negative = inhibition",[3]; [8],inconclusive: -20.8% [at 81.1 µM]
same,Potency,[4],"inconclusive: 38.9 µM [cytotoxic, partial curve, poor fit]"
